Reference: the supplement of paper PMC11417369
The list shows a part of the results.

tested on: PF3D7_0420300 AP2 domain 1 (GST-tagged); assay: gcPBM binding intensity (ln(normalized median fluorescence intensity)); higher = stronger DNA binding
How it was run: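 Alexa488 anti-GST antibody, scanned at 488 nm, detected GST-tagged P. falciparum DNA-binding domains that had been expressed in E. coli and incubated for 1 h on an Agilent 4 × 180k array. The array carried primer-extended double-stranded 36-bp intergenic genomic probes and negative controls. Binding intensity is the highest Masliner-normalised natural-log median intensity across replicate spots of either orientation of each probe.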

Sequence	gcPBM binding intensity (ln)
TTACAAATGTTTTACACACACATAATTGTATCAATT [CACACA_site6147]	9.73
ACTACTCCATTAAGTAGTACACAAAAAAAAAAAATA [XGTACX_site7031]	9.12
TAATAAAACATATATACACACATTATAAATACATAT [CACACA_site5014]	9.86
TATAAATAAAAACACACACACATATATATATATATA [CACACA_site2319]	9.75
CCATTTTAAATATGCACACAGATGCACTAACCCATT [CACACA_site1883]	9.36
TAAAAAATAAAAAAAGCACACACATATATATATATA [CACACA_site8567]	9.72
AAAATAAGAAATTGAAAAATTGAAAACAAAATTAAA [CACACA_negctrl_site1285]	9.15
TATCCCTTAGAATACACACCCATATGAGCGTGAACT [CACACA_site2951]	9.15
TCGTATATGGATTTTGCACACAATTATAATTTAAAT [CACACA_site868]	9.49
TATATATTTTAAAATAGTACATATTATATAACCCAT [XGTACX_site2194]	9.25
ATATATATATATATATGTACACATTAATGTTTTTTT [XGTACX_site167]	9.41
ATTTTTTTTATGAGGTGTACTCATATAATAACTACA [XGTACX_site5074]	9.11
TATTTTTTTTTTTAATGTACAAACAAATTATGTTGG [XGTACX_site2873]	9.03
TTTTCTAAAGTAAGTTAAGATATGCAAAAAAAAGAA [GTGCAC_negctrl_site242]	9.2
AATAAAAATTGGTAGGCACACATGGAACTATTAAAA [CACACA_site1257]	9.64
TATAAAAGGTAAGAGTGTACAAGTAAAAAATTTTTA [XGTACX_site771]	9.3
ATGAACTATATTAAATCACACATTATCATTTTATAT [CACACA_site4989]	9.31
TATGTCAAATATATATGTACACAAATATACTATTAA [XGTACX_site2643]	9.07
ATAAAATATATATTAGTGCACTAAAGGAAAAAAAAT	9.56
AATATATATATTAGAGTGCACATAATTATTTGCTAA	9.18
AAAAATTTCATATTCACACACAAAAAAAAAAAATAT [CACACA_site1592]	9.75
TGATATATATATATATATATAACACACGCAAAAAAA [TGCATGCA_negctrl_site240]	9.34
ATAATCACAAATAATTGTACATTTTGTTATATATAT [XGTACX_site7704]	9.3

Sequence	gcPBM binding intensity (ln)
ATATGATATATATTCGGTACACATATATATAAAGAG [XGTACX_site430]	9.43
TTTTTAATTTATTGTGTGCACACAACTATGAGTTTT	9.88
AAGTTTTCTTAAAATTGTACTTTTCAAAAATAATCT [XGTACX_site277]	8.89
ATTTAAATAATATTCACACACAAAATTATATTTTAA [CACACA_site219]	9.49
TTATTTTTTATTATGTGTACATAACATCGCGATACA [XGTACX_site4359]	9.28
AAAACTTGTCAGAATGGACACACGAATTAAAGGCCT [CACACA_site1215]	9.33
CAACATTCGTATATCACACATTTGCATGTTGTCAAT [CACACA_site4470]	9.25
GATTTAGTTATTTAAACATGCAATTTATATAGAATT [TGCATGCA_site47]	8.98
TATTTATACATACATACACACATATAGATTTATATT [CACACA_site7851]	9.57
ATATGATCATACTGTGCATGTTAATGCAAATTTTAT [TGCATGCA_site984]	9.27
TACATATATTATACATGTACACATTTATACATATCG [XGTACX_site2866]	9.3
CGCACAGACGGACACACACACACATATATATATATA [CACACA_site5249]	10.1
TTTTTTTTTATATAAAAAAAAATTTTTATTATTTTA [GTGCAC_negctrl_site347]	8.72
TTCTCCTAATAGTTAGTGCACTACATAACTAAGAAA	8.82
ATAATTGTCCATTTTTTCTTTTTTTTTTTCTTTTTA [CACACA_negctrl_site928]	9.58
AAAAAAAAAAAAAAAACACACATTTAGCAATCTACA [CACACA_site3706]	9.32
ATTATTATATATGTATGTACTTATATAATATATATA [XGTACX_site5198]	9.11
TATATATTGTTATATACACACATGTATTTAAAAAAT [CACACA_site5737]	9.32
TCTGTTAAACAAAAAAGTACTAAAATAATGTAAAAT [XGTACX_site6826]	9.41
TTAACAAAACATAAGGTGCTTAAAATTTTATATCAC [GTGCAC_site9839]	9.21
TACCTATATAGACACACACACATATATTTATTTATA [CACACA_site6728]	9.84
ATATGTACAAGTGTTTATGCTGAACGGAAATCCTGT [CACACA_negctrl_site1372]	9.23
